Data published in patent EP2351737A1, “3-Amino-1-arylpropyl indoles and aza-substituted indoles” (F. Hoffmann-La Roche AG, priority 2005, dated 2007).

Tests used:
[1] = molecular target: T1, Human Serotonin Transporter (hSERT) (Homo sapiens, UniProt P31645); assay: Human Serotonin Transporter (hSERT) Scintillation Proximity Assay (SPA), competition with [3H]-Citalopram; assay type: binding; details: membranes of HEK-293 cells expressing recombinant hSERT, Ki by Cheng-Prusoff
T1 construct: expressed in transfected cells; membranes prepared from them

[2] = molecular target: Human Norepinephrine Transporter (hNET) (Homo sapiens, UniProt P23975); assay: Human Norepinephrine Transporter (hNET) Scintillation Proximity Assay (SPA), competition with [3H]-Nisoxetine; details: membranes of HEK-293 cells expressing recombinant hNET, Ki by Cheng-Prusoff

In the case of “7-Chloro-5-(3-methylamino-1-phenyl-propyl)-1H-indole-3-carbonitrile [Compound 20]”, the “pKi SERT” value [1] is reported as 7.86 and the “pKi NET” value [2] is reported as 7.41.
